Source: ChEMBL document CHEMBL4888484, “Replenishing the malaria drug discovery pipeline: Screening and hit evaluation of the MMV Hit Generation Library 1 (HGL1) against asexual blood stage Plasmodium falciparum ,using a nano luciferase reporter read-out” (2022)
Among all 150,000 compounds or so, about 540 (0.36%) showed an effect of 50% or more. This is one part of the list.

Each compound was assayed on Plasmodium falciparum (assay: Primary screen in NF54 nanoGlo assay, in single point, at 2uM, 72h; a lower Z score goes with more inhibition). Details: timepoint 72 hour.
Format: functional, Erythrocyte

Row | Compound | % Inhibition [%] | Z score
1 | O=C(C[C@@H]1COC2(C1)CN(S(=O)(=O)c1ccc(F)cc1F)C2)N1CCOCC1 | -5 | 0.73
2 | CN1CCN2CCN(Cc3ccc4c(c3)CCO4)C[C@H]2C1=O | -1 | 0.06
3 | CC1(C)CCC[C@@]1(O)CNC(=O)c1ccc(OC(F)F)cc1F | -3 | 0.45
4 | Cc1cc([C@H](C(=O)O)N(C)C/C=C/c2ccccc2)ccc1F | -6 | 0.72
5 | CCCN(CC1CC1)C(=O)[C@@H]1CCCCC(=O)N1Cc1cccc(OC)c1 | -8 | 1.34
6 | O=C(COc1ccccc1)NCC(=O)Nc1ccc2[nH]c(=O)[nH]c2c1 | -9 | 1.07
7 | COCC1(C(=O)N2CC[C@H](C3CCCCC3)C2)CCC1 | -19 | 2.24
8 | Cc1ccc(Cl)cc1N1C[C@@H](C(=O)Nc2nonc2C)CC1=O | -3 | 0.38
9 | CC(C)(C)C1CNC(=O)C1C(=O)Nc1cccc2nsnc12 (stereo not given) | -6 | 0.95
10 | CCOC1CC(O)C12CCN(c1nc(C)ns1)CC2 (stereo not given) | -10 | 1.28
11 | COCCc1nc(-c2cccc3c(C)c(C)[nH]c23)n(C[C@H]2COCCO2)n1 | -20 | 2.04
12 | NC(=O)Cc1nc(C2CCC2)n(-c2ccc(OC(F)(F)F)cc2)n1 | -9 | 1.12
13 | Clc1ccc2nc(CN3CCO[C@@H](Cn4cccn4)C3)cn2c1 | -11 | 1.14
14 | COc1cc(C(=O)Nc2cnc3ccccc3c2)ncn1 | -1 | 0.22
15 | COc1c[nH]c(C(=O)Nc2ccc(C(F)(F)F)cn2)cc1=O | -15 | 1.94
16 | O=c1[nH]nc([C@H](O)c2ccccc2)n1Cc1cccs1 | -11 | 1.46
17 | Cc1nc(CN2CCC[C@H]2C(=O)Nc2ccc(-c3cscn3)cc2)c[nH]1 | -2 | 0.28
18 | C[C@H]1[C@H](c2ccccc2)OC(c2ccccc2O)N1C (stereo not given in full) | 5 | -0.75
19 | CS(=O)(=O)n1c(N)nc2ccccc21 | -6 | 0.83
20 | CCN(CC1CCOCC1)c1cc(C2CCNCC2)nc(C)n1 | 3 | -0.59
21 | CCOC(=O)CCC(=O)NCCn1cc(-c2ccncc2)cn1 | -3 | 0.42
22 | CC(NC(=O)C1C2CCC(C2)N1S(=O)(=O)c1ccccc1)c1ccccc1 (stereo not given) | -1 | 0.17

Row | Compound | % Inhibition [%] | Z score
23 | O=C(Cc1nnc(-c2ccsc2)o1)Nc1ccccc1F | -5 | 0.52
24 | c1coc(CNc2nnc(C3CCCCC3)o2)c1 | -7 | 0.82
25 | Nc1ccccc1C(=O)N[C@H]1CC[C@H](O)CC1 | -10 | 1.46
26 | CC[C@@]1(C)Oc2ccc(NCc3ccccn3)cc2O1 | -15 | 1.68
27 | O=C(NCCN1CCCOCC1)N[C@@H](C1CCCC1)C(F)(F)F | -3 | 0.41
28 | CC(C)CCN1C(=O)[C@@H]2C(C(=O)Nc3ccc(C(C)C)cc3)[C@@H]3C=C[C@]2(O3)C1C(=O)NC1CCCCC1C (stereo not given in full) | 6 | -0.99
29 | Cc1cnc(NCC[C@H]2CCCN(C)C2)nc1N(C)C | -6 | 0.65
30 | C[C@H]1CS(=O)(=O)CCN1CCCc1nc(-c2ccccc2)no1 | -10 | 1.84
31 | Cc1cc(N(C)CCn2cccn2)n2nc(C)cc2n1 | -1 | 0.07
32 | CC(C)(C)CC(=O)NC[C@H](O)c1ccc(-c2ccco2)o1 | 7 | -0.99
33 | Cc1nc(CCCC(=O)N[C@H]2CCN(C(C)C)C2=O)cs1 | -5 | 0.65
34 | O=C(NCCC1=CCCCC1)C1CCN(S(=O)(=O)c2cc(Cl)ccc2Cl)CC1 | 3 | -0.42
35 | Cc1noc(C)c1CN1CC[C@H](NC(=O)c2ccccc2C#N)[C@@H](O)C1 | -19 | 1.79
36 | O=S(=O)(CCc1ccccc1)N1CCC(n2ccnn2)CC1 | -3 | 0.49
37 | COc1ccccc1CNC(=O)c1cn(CC2(O)CCN(Cc3ccccc3)CC2)nn1 | 39 | -1.11
38 | CCn1ncc(Br)c1C(=O)NCCc1cn(C)cn1 | -17 | 1.83
39 | O=c1c2cc(-c3cccc(Br)c3)nn2ccn1C[C@H](O)c1ccc(Cl)cc1 | 0 | -0.05
40 | O=C(N1CCOCC1)C1(F)CCN(S(=O)(=O)Cc2ccccc2)CC1 | -7 | 0.92
41 | Cc1c(C(=O)NC[C@H]2COCCO2)c2ccccc2n(C)c1=O | -3 | 0.33
42 | CC(NCC(O)c1cnn(C)c1)c1cc(Cl)cc(Cl)c1F (stereo not given) | -18 | 3.63
43 | CC[C@@H](C(=O)N1CC(Oc2cccnc2)C1)c1ccccc1 | -8 | 1.51
44 | CC(C)Cc1ccc(CN2C[C@@H](CN(C)C)[C@@H](CO)C2)s1 | -4 | 0.65

Row | Compound | % Inhibition [%] | Z score
45 | CCn1nc(CN2CCC(NC(=O)c3cnn(C)c3C)CC2)c2c1CCOC2 | 7 | -0.85
46 | O=C(N[C@@H](C1CC1)C1(CO)CCOCC1)c1ccc(O)c(F)c1 | -7 | 1.27
47 | CN1C[C@@]2(CCN(C(=O)NCc3cnc4c(c3)CCC4)C2)OCC1=O | 2 | -0.39
48 | Cc1cccc(CN2CCC(C(=O)NCc3ccc(N4CCN(C)CC4)cc3)CC2)c1 | 12 | -2.08
49 | CCn1cc(CNc2ccn(CCOC)n2)cn1 | 4 | -0.84
50 | CC(C)(C)n1nc(-c2c[nH]c3ccccc23)nc1[C@H]1CCS(=O)(=O)C1 | -4 | 0.83
51 | Cn1ncnc1CNc1c(F)cccc1Cl | -9 | 0.95
52 | Cc1cc(C(=O)N[C@@H](COCC(C)C)c2ccco2)n(C)n1 | -4 | 0.71
53 | Cc1nccn1[C@@H](C)C(=O)N1CCCCCCC1 | -10 | 1.57
54 | CCN(CC)C(=O)c1cc(-c2ccc(C)s2)cc(S(=O)(=O)N2CCOCC2)c1 | 3 | -0.34
55 | C[C@H](NC(=O)Nc1ccn(C2CCN(C)CC2)n1)c1ccon1 | 4 | -0.7
56 | C[C@H]1CN(C)CCN1CC1CCN(C(=O)CCC2CCCCC2)CC1 | -7 | 0.81
57 | CCc1noc(CN2N=C(C(=O)N3CCCCCC3)S(=O)(=O)c3ccc(C)cc32)n1 | -7 | 0.83
58 | CN1CCC[C@H](Nc2cc(C(=O)N3CCOCC3)ccn2)C1 | -5 | 0.97
59 | CN(Cc1cnccn1)C(=O)[C@@H]1COc2ccc(Br)cc21 | -1 | 0.11
60 | C[C@@H](C(=O)N(C)C)S(=O)(=O)N(C)C1CCC(CO)CC1 (stereo not given in full) | -4 | 0.79
61 | Cc1noc(CNC(=O)c2nnc(C(C)(C)C)[nH]2)n1 | -9 | 1.15
62 | Cc1ccc(O)c(C(=O)N2CCc3c(nc(C)nc3N3CCCC3)C2)c1 | -8 | 1.25
63 | O=C(CCc1nnc(CCc2ccccc2)o1)N1CCC(CN2CCCCC2)CC1 | -7 | 1.04
64 | O=C1CC[C@@H](C(=O)NCC2CCN(C(=O)c3cccs3)CC2)N1 | 8 | -0.94
65 | CNC(=O)[C@@H]1CC[C@](C)(C(=O)NCCCc2cccnc2)C1(C)C | -9 | 1.33
66 | O=C(CN1CCCCCC1=O)N1CCCCCC1 | -11 | 1.67

Row | Compound | % Inhibition [%] | Z score
67 | CCn1nccc1C(=O)N1CCCN(Cc2c(C)noc2C)CC1 | 0 | -0.05
68 | CCN(CC)c1ccc(/C(N)=N/O)cc1 | 25 | -2.84
69 | CCOC(=O)CNC(=O)N1CCC2(CC1)NC(=O)c1ccc(Cl)cc1N2 | -11 | 1.89
70 | Cc1nc(N)nc(C)c1Cc1nc(C(C)C)nn1-c1ccccc1 | -15 | 2.35
71 | Cc1ccc(-c2nc(Cn3nnc(-c4nc(-c5cccc(F)c5)no4)c3C)c(C)o2)cc1 | -14 | 1.94
72 | O=S(=O)(c1ccc(Oc2ccc3c(c2)OCO3)nc1)N1CCCCC1 | -16 | 1.33
73 | O=C(c1ccc(F)c(F)c1)N1CC(n2ccnn2)C1 | -19 | 2.2
74 | O=C(NCc1ccc(Cn2cccn2)cc1)c1ccc2ccccc2n1 | -11 | 1.45
75 | CCCC[C@@H](c1cccnc1)N(C)Cc1csc(C)n1 | 3 | -0.46
76 | O=C(COC1CCCC1)Nc1ccc(-c2ccccc2)cn1 | 6 | -0.69
77 | CC(C)C(=O)N(C)CC(=O)NCc1ccc(OC2CCCCC2)nc1 | -10 | 1.36
78 | COC[C@H]1CCCN1[C@@H]1[C@H](O)[C@H](CO)O[C@@H]1CNC(=O)c1cccc(F)c1 | 16 | -1.88
79 | Cc1cc(F)c(CNC(=O)N2CCS(=O)(=O)CC[C@@H]2C)c(F)c1 | 1 | -0.08
80 | Cc1ccc(CCNC(=O)N2CCCCO2)nc1 | -15 | 2.88
81 | Cc1nc2cc(NS(C)(=O)=O)cc(C(=O)NCc3ccccc3Cl)c2n1Cc1ccccc1 | -6 | 0.89
82 | CCN(CC)S(=O)(=O)CC(=O)NC1CC2CCC1C2 (stereo not given) | 10 | -1.5
83 | Cc1ccc(C(=O)N2CC[C@](C)(O)[C@H](Cc3ccccc3)C2)cc1C | 1 | -0.14
84 | CC(C)(C)OCc1cc(C(=O)N2CCCCC[C@H]2c2ncon2)no1 | 0 | -0.05
85 | COc1ccc(C)cc1NC(=O)Cn1c(C)cc(C)c1-c1nc(C2CC2)no1 | 3 | -0.32
